Non-standard residues stand in square brackets, D forms with d. No end group written: not given here. pT = C[C@@H](OP(=O)(O)O)[C@H](N)C(=O)O; pS = N[C@@H](COP(=O)(O)O)C(=O)O

One experiment deals with iPHF (UniProt P10636-8 2-441). Briefly: BLI (Octet), antibody on biosensor tip. How it is done:
Anti-human tau antibodies were assessed for affinity for iPHF by Octet (ForteBio, Menlo Park, CA) analysis. A set of recombinant human IgG1 antibodies were prepared with clone-specific variable domain pairs selected from those presented in Table 1 and human IgG1 constant domains. Candidate antibodies were immobilized on biosensor tips (ForteBio) in kinetic buffer (ForteBio). Biosensor tips were then washed before introduction of a solution of iPHF in kinetic buffer for analysis of association and dissociation with candidate antibodies.

The target of experiment [1] is T1, Tau204-222 phospho-peptide (pS214) (human, also: SCBiot-(dPEG4) in the ELISA).
T1 peptide: GTPGSRSRTP[pS]LPTPPTRE
Description: one point ELISA.

Experiment [2] has as its target T2, Tau204-222 phospho-peptide (pT212) (human, also: SCBiot-(dPEG4) in the ELISA).
T2 peptide: GTPGSRSR[pT]PSLPTPPTRE
Briefly: one point ELISA. For orientation: An ELISA detects its analyte on a solid surface through an enzyme-linked reagent.

Experiment [3] addresses T3, Tau204-222 phospho-peptide (pS214/pT217) (human, also: SCBiot-(dPEG4) in the ELISA).
T3 peptide: GTPGSRSRTP[pS]LP[pT]PPTRE
Description: one point ELISA.

Experiment [4] addresses T4, Tau204-222 phospho-peptide (pT212/pS214/pT217) (human, also: SCBiot-(dPEG4) in the ELISA).
T4 peptide: GTPGSRSR[pT]P[pS]LP[pT]PPTRE
Briefly: one point ELISA.

Experiment [5] deals with T5, Tau204-222 phospho-peptide (pT217) (human, also: SCBiot-(dPEG4) in the ELISA).
T5 peptide: GTPGSRSRTPSLP[pT]PPTRE
Briefly: one point ELISA.

In experiment [6] the target is T6, Tau204-222 phospho-peptide (pT212/pT217) (human, also: SCBiot-(dPEG4) in the ELISA).
T6 peptide: GTPGSRSR[pT]PSLP[pT]PPTRE
Briefly: one point ELISA.

The target in experiment [7] is T7, Tau204-222 phospho-peptide (pT212/pS214) (human, also: SCBiot-(dPEG4) in the ELISA).
T7 peptide: GTPGSRSR[pT]P[pS]LPTPPTRE
Briefly: one point ELISA.

In experiment [8] the target is T8, Enriched paired helical filament (ePHF; sarkosyl insoluble tau) (human, UniProt P10636 2-758, pathological (hyperphosphorylated) tau isolated from brain; sites not stated).
T8 construct: aggregate isolated from AD frontal cortical tissue
Briefly: direct ELISA, coated antigen. How it is done: A set of recombinant human IgG1 antibodies were prepared with clone-specific variable domain pairs selected from those presented in Table 1 and human IgG1 constant domains. These candidate antibodies were analyzed for binding to ePHF and specificity for ePHF over wild type tau by direct ELISA.
For direct ePHF and wildtype tau ELISA, plates were first coated with ePHF or wild type tau. Antigen solutions were prepared in PBS and 50 μL were pipetted into each well. Plates were covered and incubated for one hour at 37° C. or overnight at 4° C. Plates were then washed and blocked by addition of 150 μl of blocking buffer to each well and incubated one hour at room temperature. Plates were then washed before addition of serially diluted candidate antibody samples prepared in blocking buffer. Detection of candidate antibody binding was carried out by washing plates and adding a solution of enzyme-labeled secondary antibody in blocking buffer to each well. Secondary antibody binding was detected by addition of substrate and spectrophotometric analysis of resulting reaction product.

For experiment [9], the target named is T1, Tau204-222 phospho-peptide (pS214). Briefly: one point ELISA. An excerpt:
(§1) One-point ELISA was used to determine differential binding based on the individual phosphorylation patterns of each peptide. OD values (450 nm) were collected (as shown in Table 13), where a stronger positive signal is shown as a higher OD value, which is indicative of increased binding.

Experiment [10] has as its target T2, Tau204-222 phospho-peptide (pT212). Briefly: one point ELISA.
Source text: as §1

Experiment [11] has as its target T3, Tau204-222 phospho-peptide (pS214/pT217). Description: one point ELISA.
Source text: as §1

For experiment [12], the target named is T4, Tau204-222 phospho-peptide …. Briefly: one point ELISA.
Source text: as §1

For experiment [13], the target named is T5, Tau204-222 phospho-peptide (pT217). Description: one point ELISA.
Source text: as §1

In experiment [14] the target is T6, Tau204-222 phospho-peptide (pT212/pT217). Briefly: one point ELISA.
Source text: as §1

Experiment [15] deals with T7, Tau204-222 phospho-peptide (pT212/pS214). Description: one point ELISA.
Source text: as §1

Sequence of iPHF (P10636 other isoform, or with tags, fused parts or gaps): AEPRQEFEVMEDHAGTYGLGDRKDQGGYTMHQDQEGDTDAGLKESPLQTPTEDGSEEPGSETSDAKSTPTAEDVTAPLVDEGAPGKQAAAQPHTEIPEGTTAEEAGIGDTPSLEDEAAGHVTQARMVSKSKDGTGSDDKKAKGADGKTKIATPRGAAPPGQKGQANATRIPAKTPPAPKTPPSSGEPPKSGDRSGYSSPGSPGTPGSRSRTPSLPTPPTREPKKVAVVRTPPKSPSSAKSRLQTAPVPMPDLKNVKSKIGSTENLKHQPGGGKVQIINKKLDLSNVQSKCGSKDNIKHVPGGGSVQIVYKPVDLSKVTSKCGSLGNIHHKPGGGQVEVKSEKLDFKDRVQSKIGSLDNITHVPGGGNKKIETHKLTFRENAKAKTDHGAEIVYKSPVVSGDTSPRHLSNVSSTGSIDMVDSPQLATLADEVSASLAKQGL

B1: VY002 (antibody, V domains shown)
VH: [skipping about 100 residues]DYPKDVWGQGTTVTVSS
VL: DIVMTQSPDSLAVSLGERATINCKSSQSVLYSSKNKNYLAWYQQKPGQPPKLLIYWASTRESGVPDRFSGSGSGTDFTLAISSLQAEDVAVYYCQQYYSSPYTFGQGTKLEIK
The term Kd denotes the free concentration of one partner at which half of the binding sites on the other are occupied at equilibrium, for simple one-to-one binding. As a reminder, the EC50 is the concentration at which the effect is half-maximal. The low end stands for a more potent agent, the high end for a less potent agent. Regarding B1, the Kd with iPHF turned out to be 1 nM. The binding result in experiment [1], in [2], in experiment [3], in experiment [4], in [5] and in experiment [6] was “no binding” throughout. Further, the binding result in experiment [7] is “no binding”. The response in experiment [8] was half-maximal at 0.03 nM (EC50). The OD450 in [9] worked out at 0.058 OD450 nm; in experiment [10], 0.055 OD450 nm; in experiment [11], 0.062 OD450 nm; in [12] it was 0.06 OD450 nm; in experiment [13], 0.068 OD450 nm; in [14], 0.06 OD450 nm. This molecule also yielded an OD450 in [15] of 0.055 OD450 nm.

(Values after US20240059766A1 (VOYAGER THERAPEUTICS, published 2024).)
